The labels stand for the following.
B1: 12A09-25GS-hG4: VHH 12A9 fused via 25 amino acid GGGGSx5 linker to human IgG4 Fc (S228P, L235E), dimeric; SEQ ID NO: 93 (protein)
chain: EVQLVESGGGLVQAGESLRLSCAASGSIASIKTMAWYRQAPGSQRELVTAIASDNRKYYADSVKGRFTISRDNAKTTVYLQMNSLRPEDTAVYYCVVDVTKEDYWYWGQGTQVTVSSGGGGSGGGGSGGGGSGGGGSGGGGS[human IgG4 Fc with changes not shown]
modifications: chains of the parent or of the whole protein
B2: 9B03-25GS-hG4 (Fc fusion)
chain: EVQLVESGGGLVQAGESLRLSCAASGSIASIRTMAWYRQAPGSQRELVAAISSGREVYYADSVKGRFTISRDNAKTTVYLQMNSLRPEDTAVYYCVVDMYWQDYWWWGQGTQVTVSSGGGGSGGGGSGGGGSGGGGSGGGGS[human IgG4 Fc with changes not shown]
notes: also called 9B03-25GS-huFc; 9B3-25GS-hIgG4
B3: 9B03 (VHH1)-25GS-hG4 (Fc fusion)
chain: EVQLVESGGGLVQPGESLRLSCAASGSIASIRTMAWYRQAPGSQRELVAAISSGREVYYADSVKGRFTISRDNAKTTVYLQMNSLRAEDTAVYYCVVDMYWQDYWWWGQGTQVTVSSGGGGSGGGGSGGGGSGGGGSGGGGS[human IgG4 Fc with changes not shown]
notes: also called 9B03-VHH1-25GS-huFc (humanized); humanized 9B3 variant VHH1 chimera
B4: 12A09 (VHH16)-25GS-hG4 (Fc fusion)
chain: EVQLVESGGGLVQPGGSLRLSCAASGSTASIKTMAWYRQAPGKGLELVTAIASDNRKYYADSVKGRFTISRDNSKTTVYLQMNSLRAEDTAVYYCVVDVTKEDYWYWGQGTLVTVSSGGGGSGGGGSGGGGSGGGGSGGGGS[human IgG4 Fc with changes not shown]
notes: also called 12A09-VHH16-25GS-huFc (humanized); 12A09-VHH16-25G-huFc (humanized)
B5: 12A09 (VHH18)-25GS-hG4 (Fc fusion)
chain: EVQLVESGGGLVQPGGSLRLSCAASGSIASIKTMAWYRQAPGKGRELVTAIASDNRKYYADSVKGRFTISRDNSKTTVYLQMNSLRAEDTAVYYCVVDVTKEDYWYWGQGTLVTVSSGGGGSGGGGSGGGGSGGGGSGGGGS[human IgG4 Fc with changes not shown]
notes: the same make-up is recited in CLM-00093; also called 12A09-VHH18-25GS-huFc (humanized); 12A9-VHH18-25GS-huFc
B6: 12A09 (VHH12)-25GS-hG4 (Fc fusion)
chain: EVQLVESGGGLVQPGGSLRLSCKASGSIASIKTMAWYRQAPGKGLELVTAIASDNRKYYADSVKGRFTISRDNSKTTVYLQMNSLRAEDTAVYYCVVDVTKEDYWYWGQGTLVTVSSGGGGSGGGGSGGGGSGGGGSGGGGS[human IgG4 Fc with changes not shown]
notes: also called 12A09-VHH12-25GS-huFc (humanized); 12A09-VHH12-25G-huFc
B7: 12A09 (VHH17)-25GS-hG4 (Fc fusion)
chain: EVQLVESGGGLVQPGGSLRLSCKASGSTASIKTMAWYRQAPGKGLELVTAIASDNRKYYADSVKGRFTISRDNSKTTVYLQMNSLRAEDTAVYYCVVDVTKEDYWYWGQGTLVTVSSGGGGSGGGGSGGGGSGGGGSGGGGS[human IgG4 Fc with changes not shown]
notes: also called 12A09-VHH17-25GS-huFc (humanized); 12A09-VHH17-25G-huFc
B8: 12A09 (VHH4)-25GS-hG4 (Fc fusion)
chain: EVQLVESGGGLVQPGGSLRLSCAASGSIASIKTMAWYRQAPGKQRELVTAIASDNRKYYADSVKGRFTISRDNSKNTLYLQMNSLRAEDTAVYYCVVDVTKEDYWYWGQGTLVTVSSGGGGSGGGGSGGGGSGGGGSGGGGS[human IgG4 Fc with changes not shown]
notes: also called 12A09-VHH4-25GS-huFc (humanized); 12A9-VHH4-25GS-huFc

One test has as its target T1, CD28-Fc (Homo sapiens, UniProt P10747).
T1 construct: Fc
Put plainly: Biacore multi-cycle kinetics on immobilized CD28-Fc. In kind it is binding. The note with it: Table 5, VHH-25GS-human IgG4 Fc dimeric agents. (SPR reads the build-up and loss of mass on a sensor chip optically.)
B1: the affinity, expressed as Kd, was 0.161 nM.

Another test concerns the target T2, human CD28-Fc chimera (R&D, Cat. No. 342-CD) (human, UniProt P10747 19-152).
T2 construct: Bought reagent; also called recombinant human CD28-Fc fusion protein; recombinant CD28 fused to an Fc backbone; Fc part of the bought chimera not given
The test can be described thus: SPR (Biacore), multi-cycle kinetics, binding to CD28-Fc.
Details: not given
Turning to B2, the Kd (commonly the equilibrium constant for the complex coming apart) amounted to 0.393 nM; the koff (as a rule, the first-order rate constant of dissociation) is 0.000102 s⁻¹; the kon – broadly, the rate constant with which the complex forms – worked out at 260000 M⁻¹ s⁻¹.
The corresponding values for B3 are 0.449 nM, 9.79e-05 s⁻¹ and 219000 M⁻¹ s⁻¹.
The corresponding values for B4 are 0.298 nM, 2.53e-05 s⁻¹ and 84900 M⁻¹ s⁻¹.
B5 yielded a dissociation constant Kd of 0.361 nM, a koff of 4.22e-05 s⁻¹ and a kon of 117000 M⁻¹ s⁻¹.
The corresponding values for B6 are 0.396 nM, 3.01e-05 s⁻¹ and 76100 M⁻¹ s⁻¹.
The corresponding values for B7 are 0.17 nM, 1.29e-05 s⁻¹ and 75900 M⁻¹ s⁻¹.
Consider B8, for which the affinity, expressed as Kd, was 0.435 nM; the koff was 5.38e-05 s⁻¹; the association rate constant (kon) is 124000 M⁻¹ s⁻¹.

Another test deals with T3, human CD28 on the cell surface (membranal CD28) (human, UniProt P10747 19-220).
T3 construct: also called mCD28; CD28 on the surface of cells
The test can be described thus: flow cytometry on human CD3 cells, 300 nM; reference 12A09-25GS-huFc (parental).
Details: not given
On the technique in general: A flow cytometer gives signals particle by particle.
As to B4, the “fold fluorescence against the parental construct” value (“fold fluorescence” for short) came out at 3 fold.
For B6, the “fold fluorescence” value came to 3 fold.
In the case of B7, the “fold fluorescence” value is 3 fold.

The next test has as its target T3, human CD28 on the cell surface …. The test can be described thus: flow cytometry on human CD3 cells, 300 nM, anti-human IgG VHH Alexa Fluor 647.
Details: not given
The molecule B4 yielded an MFI of 1590 MFI.
On the same count and under the same terms, under B5 stands 612 MFI; under B6, 1650 MFI; under B7, 1920 MFI.
In turn, B8 showed an MFI of 564 MFI.

In a further test the target is T2, human CD28-Fc chimera (R&D, Cat. No. …). Put plainly: direct CD28 EIA on plate-coated human CD28-Fc chimera, construct titrated (nM), OD read.
Details: not given
As to B2, the EC50 (read off the curve) (commonly the midpoint of the concentration-response curve) is about 0.9 nM.
